# Measurements: the supplement of paper PMC3334620
# Whole data set: some 33,000 sequences, median “E-score (-0.5 to 0.5)” near -0.035, cut for the highest 2% near 0.35. The list shows a part of the results.
# Target: T1, Pdr3 (UniProt P33200)
# T1 sequence: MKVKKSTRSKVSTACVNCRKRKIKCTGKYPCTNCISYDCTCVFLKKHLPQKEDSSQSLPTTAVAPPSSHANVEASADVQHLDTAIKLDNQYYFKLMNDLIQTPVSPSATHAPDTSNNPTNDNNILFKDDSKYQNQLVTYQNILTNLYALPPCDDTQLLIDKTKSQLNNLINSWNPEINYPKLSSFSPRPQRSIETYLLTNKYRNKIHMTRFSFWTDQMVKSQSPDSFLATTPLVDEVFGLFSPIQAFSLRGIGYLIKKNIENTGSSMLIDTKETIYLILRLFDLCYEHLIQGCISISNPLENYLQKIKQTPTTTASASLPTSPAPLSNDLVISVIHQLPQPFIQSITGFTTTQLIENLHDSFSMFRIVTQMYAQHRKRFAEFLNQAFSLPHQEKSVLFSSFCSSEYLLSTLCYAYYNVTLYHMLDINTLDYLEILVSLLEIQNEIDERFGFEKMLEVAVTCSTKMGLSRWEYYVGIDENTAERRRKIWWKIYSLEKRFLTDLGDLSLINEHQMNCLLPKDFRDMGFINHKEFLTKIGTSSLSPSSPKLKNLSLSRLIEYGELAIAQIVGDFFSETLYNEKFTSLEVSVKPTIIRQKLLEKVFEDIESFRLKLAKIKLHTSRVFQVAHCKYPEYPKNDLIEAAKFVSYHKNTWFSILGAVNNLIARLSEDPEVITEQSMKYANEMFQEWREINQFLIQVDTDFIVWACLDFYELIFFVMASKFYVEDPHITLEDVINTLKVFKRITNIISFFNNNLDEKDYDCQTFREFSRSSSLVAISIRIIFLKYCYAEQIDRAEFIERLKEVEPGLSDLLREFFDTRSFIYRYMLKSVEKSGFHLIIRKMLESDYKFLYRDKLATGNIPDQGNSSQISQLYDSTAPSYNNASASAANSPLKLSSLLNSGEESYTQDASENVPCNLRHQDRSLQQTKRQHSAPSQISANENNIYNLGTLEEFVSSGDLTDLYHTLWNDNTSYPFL
# Experiment: PBM E-score (8-mer binding enrichment) (E-score (-0.5 to 0.5)); higher = stronger / more preferred TF binding; most listed sequences are background and not binding sites
# Conditions: protein concentration: 200 nM; construct: GST-full length
# Summary of the method: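 The E-score, a modified Wilcoxon-Mann-Whitney statistic, was computed by the Universal PBM Analysis Suite for every ungapped eight-base word pooled with its reverse complement. Scans behind it were normalised with masliner after bound GST-tagged yeast transcription factors were detected with fluorescent anti-GST. The proteins, at about 100-200 nM, had been applied to universal all-10-mer Agilent arrays made double-stranded by primer extension.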
row,Sequence,PBM E-score
1,CAAAATAC,-0.0143
2,CCAATTGA,-0.0229
3,GTTATTCA,-0.187
4,ATGCACTA,-0.186
5,ATGGACAT,0.0367
6,CCTCTTTA,-0.258
7,GTAGTGTA,-0.214
8,ACCATTTC,0.0064
9,CCCGTAAG,-0.127
10,AACCCATC,-0.0395
11,ACTCTGCA,-0.125
12,GCGAGCCA,-0.0301
13,CAGATCGG,0.228
14,CGTACAGC,0.0556
15,ATTATTGG,0.114
16,GCTAAAGC,-0.221
17,CCTAGATC,-0.201
18,ACCTGCGC,0.0443
19,AGGGACGC,-0.162
20,AGGCATCG,-0.0625
21,AGGCCCTC,-0.0799
22,AACGAGAT,0.00769
23,CCAAGTAC,-0.165
24,AGAACGTC,-0.0698

row,Sequence,PBM E-score
1,GATTCTCA,-0.0218
2,CAGCCTTC,-0.0998
3,GTACTGGA,-0.139
4,AGTCCCGC,0.172
5,ACGTTGGA,-0.221
6,GAACGTAA,0.0202
7,CCCTAACA,0.05
8,AAGCTGTC,-0.208
9,GAGTCTGC,-0.238
10,CATCGTTA,-0.343
11,GACCTCAC,-0.0532
12,TCCCAGCA,0.107
13,CATTGTGG,0.0386
14,ATTCATTA,0.0307
15,CGGTATAA,0.0918
16,AACAGATT,-0.0762
17,AAGCCGTG,0.0354
18,CGGGTTTC,0.298
19,AGGCCTAC,-0.0777
20,ATATCCTG,-0.142
21,CGGTTAAC,0.107
22,GGCTTACC,0.0205
23,AAAACACT,-0.0926
24,CTTCACTC,-0.00119

row,Sequence,PBM E-score
1,CGTTAAGC,-0.0721
2,AAAACGCC,0.0384
3,GAGGGCCA,-0.046
4,CTGTTGCA,0.0903
5,AGACTGGC,-0.266
6,ACCTCTTC,-0.0577
7,GCTATCTA,-0.146
8,AACGGGGT,0.155
9,GTAAAGAC,-0.08
10,CACTGAGC,-0.0812
11,GTGAGAAC,-0.178
12,AGGGATCA,-0.113
13,ATTAATTC,0.16
14,AGCAACCC,-0.0264
15,CCCTCAAA,-0.0915
16,TAGCCGCA,-0.0883
17,GTCATGGA,-0.146
18,CGGAAACC,0.425
19,ACAAATGC,-0.0621
20,AGAAAACA,-0.0512
21,AAAGGACA,0.0426
22,CTCCAATA,0.0386
23,CAATTAGG,-0.0564
24,ACAAAGGA,0.0224

row,Sequence,PBM E-score
1,ATCGGCCG,0.306
2,CACCTATA,-0.193
3,AGACGTCG,-0.0609
4,GACGGTAA,0.157
5,GCCCTGAC,-0.263
6,TACACTGA,-0.0677
7,GAAGCGAA,0.0162
8,ATGATTAA,-0.0464
9,TCACACGA,-0.144
10,ACAGACTG,-0.171
11,ACATTCGT,-0.168
12,AGTATCGG,0.141
13,ACCTGGCA,-0.0336
14,ATCTTATG,-0.111
15,ACTGGGTA,-0.14
16,AAATTTCA,-0.409
17,GTAGACCA,-0.151
18,AATATCGT,0.0315
19,TGCTAACA,0.0257
20,CGTTTCAA,-0.0386
21,ATTGGATA,-0.023
22,GATGGCGA,0.0994
